Whole data set: some 33,000 sequences, median “E-score (-0.5 to 0.5)” near -0.043, cut for the highest 2% near 0.37. Some of the results follow.
Biological target: T1, Upc2 (UniProt Q12151)
T1 sequence: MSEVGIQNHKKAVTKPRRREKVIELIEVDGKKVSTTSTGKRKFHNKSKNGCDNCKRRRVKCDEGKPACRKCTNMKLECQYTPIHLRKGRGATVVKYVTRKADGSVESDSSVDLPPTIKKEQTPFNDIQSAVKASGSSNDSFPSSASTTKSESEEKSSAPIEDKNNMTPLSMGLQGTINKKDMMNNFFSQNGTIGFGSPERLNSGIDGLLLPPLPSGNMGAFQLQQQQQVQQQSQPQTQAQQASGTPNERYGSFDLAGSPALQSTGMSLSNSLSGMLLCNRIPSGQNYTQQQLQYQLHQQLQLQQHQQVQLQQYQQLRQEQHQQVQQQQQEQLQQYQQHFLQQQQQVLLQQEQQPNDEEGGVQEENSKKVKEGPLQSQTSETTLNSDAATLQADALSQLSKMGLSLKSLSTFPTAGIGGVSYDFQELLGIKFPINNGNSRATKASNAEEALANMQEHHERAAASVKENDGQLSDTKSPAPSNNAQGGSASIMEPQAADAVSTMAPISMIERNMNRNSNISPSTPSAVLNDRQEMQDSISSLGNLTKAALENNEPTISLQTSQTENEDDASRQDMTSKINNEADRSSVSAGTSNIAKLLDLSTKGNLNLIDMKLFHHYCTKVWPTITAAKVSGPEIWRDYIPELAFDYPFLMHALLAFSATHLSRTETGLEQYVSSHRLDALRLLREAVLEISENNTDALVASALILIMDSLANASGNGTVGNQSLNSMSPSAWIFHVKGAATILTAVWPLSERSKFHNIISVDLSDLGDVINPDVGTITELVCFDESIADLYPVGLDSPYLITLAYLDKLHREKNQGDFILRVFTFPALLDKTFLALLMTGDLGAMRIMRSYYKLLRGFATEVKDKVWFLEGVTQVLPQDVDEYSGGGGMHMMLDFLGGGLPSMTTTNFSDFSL
Assay: PBM E-score (8-mer binding enrichment) (E-score (-0.5 to 0.5)); higher = stronger / more preferred TF binding; most listed sequences are background and not binding sites
Settings: protein concentration: 200 nM; construct: GST-full length
In short: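 Masliner-normalised scans of fluorescent anti-GST signal were the basis for scoring. That signal came from GST-tagged yeast transcription factors applied at about 100-200 nM to double-stranded universal all-10-mer Agilent arrays on fresh or once-stripped slides. Each ungapped eight-base word, pooled with its reverse complement, received an E-score from the Universal PBM Analysis Suite.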

Row | Sequence | PBM E-score
1 | AGTAAGGC | -0.0311
2 | AAACCATC | 0.0789
3 | AACCGACG | 0.274
4 | CCCCAATA | -0.184
5 | GTTCGATA | 0.063
6 | TAAGTCGA | 0.0365
7 | ATCCGGGC | -0.172
8 | AATCCCCG | -0.119
9 | AGGCCCCC | -0.249
10 | CTGGATAA | -0.103
11 | ACTTATGA | -0.0397
12 | GCTTTTTA | 0.0834
13 | ACGTGAGA | -0.0447
14 | AAAGGTCC | -0.2
15 | ACCTTGGA | -0.403
16 | AGAGAGTG | -0.0951
17 | CTAGTGTC | 0.0134
18 | AGGACGTG | -0.219
19 | GTTCTCGA | 0.219
20 | AATTAATT | 0.0772
21 | GATAAATA | 0.0557
22 | GGCTAAAC | 0.251

Row | Sequence | PBM E-score
23 | TGGTTGAA | -0.322
24 | CACCGAAG | -0.0326
25 | ATGATCCC | -0.172
26 | AACGTCAC | -0.0182
27 | GGGCGCAA | -0.0461
28 | GGATTATA | 0.102
29 | AGTTCGAG | 0.00075
30 | AAATTCAC | 0.00055
31 | CAACGACA | 0.313
32 | CCTTAGTA | -0.179
33 | AACTCCGC | -0.232
34 | CAGACCTA | 0.0156
35 | CGCAAGGC | -0.177
36 | ATCCTACA | -0.0956
37 | CGGAGCAC | -0.0154
38 | ATCATGCG | -0.0346
39 | ACGGGGAG | 0.0563
40 | CGTAACAG | 0.303
41 | ATTCAAAG | -0.0977
42 | CGCGGGTC | 0.099
43 | GACGAATC | 0.138
44 | AGTAACAG | -0.121

Row | Sequence | PBM E-score
45 | AGATACCC | 0.0316
46 | CGCTCATA | 0.153
47 | AAGCCCGG | -0.0712
48 | ACATGAGC | -0.14
49 | GAACGATA | 0.402
50 | CAGACCCC | -0.37
51 | ACCTCTGG | -0.0874
52 | AAACCCTA | -0.259
53 | CTCGAAAA | -0.0106
54 | CAAAAACG | 0.152
55 | CGGGGGCA | -0.247
56 | CAACCAAG | -0.167
57 | CACCGCCA | -0.099
58 | GCGTCGCC | -0.128
59 | CAATTGCC | -0.132
60 | ATGCCCAC | -0.0923
61 | CGGTTCTA | -0.0216
62 | CTCCAACC | -0.115
63 | TAGAGAGA | -0.13
64 | CCCCAGGG | -0.139
65 | ACAAATCA | 0.00175
66 | AGAGATGG | -0.165

Row | Sequence | PBM E-score
67 | GTGATAAC | -0.0723
68 | GGATCACA | -0.106
69 | ACGCAGGG | -0.0657
70 | AAGCGGGG | -0.0605
71 | CGTTTAAG | 0.468
72 | AGCTCAGC | -0.183
73 | AACCATCG | 0.245
74 | AAATTTAC | 0.209
75 | GAAAAACC | -0.037
76 | CTCGGTGC | -0.101
77 | CGCACTGC | -0.0508
78 | AAATAGGG | -0.0639
79 | GGCACTTA | -0.127
80 | CAGTTAGG | -0.123
81 | AGTCTTAG | -0.185
82 | CACAGCTG | -0.187
83 | CTCACGGC | -0.372
84 | ATTGTACC | 0.115
85 | GGTACCGA | 0.0871
86 | TACGCCGA | 0.258

Reference: the supplement of paper PMC3334620
